Reference: a collection of fitness landscapes (doi:10.1016/j.celrep.2020.107928)
Whole data set: some 81,000 sequences, median “one-hybrid fitness for binding NBS DNA” near -0.1, cut for the highest 2% near 0.36. The list shows a part of the results.

B1: Caulobacter ParB omega fusion; a variant is named by its letters at X, in order, B8GW30 (parent)
chain: MESVVVGEPGMSEGRRGLGRGLSALLGEVDAAPAQAPGEQLGGSREAPIEILQRNPDQPRRTFREEDLEDLSNSIREKGVLQPILVRPSPDTAGEYQIVAGERAWRAAQRAGLKTVPIMVRELDDLAVLEIGIIENVQRADLNVLEEALSYKVLMEKFERTQENIAQTIGKSXSHVANXMRLLXLPDEVQSYLVSGELTAXHARAIAAAADPVALAKQIIEGGLSVRETEALARKAPNLSAGKSKGGRPPRVKDTDTQALESDLSSVLGLDVSIDHRGSTGTLTITYATLEQLDDLCNRLTRGI

Variants of: B1
Assay: one-hybrid fitness for binding NBS DNA (the Noc-binding site; scaled: cognate 1, non-cognate 0); higher = stronger binding
Settings: with NBS DNA site
In short: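 Pre- and post-selection plasmids were Illumina-sequenced, three replicate libraries were pooled, and any variant with under 10 reads was removed. The libraries were Caulobacter ParB with four specificity codons randomised, selected in E. coli USO through a HIS3 reporter whose site is 19 bp from the promoter. Cells grew 48 hours at 37°C on M9 without histidine, with 0.1 mM IPTG and 5 mM 3-AT. Fitness is the log change in variant-to-wild-type read ratio, rescaled against cognate and non-cognate.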

one-hybrid fitness for binding NBS DNA, ≤ 0.2:
ARGE
NVSY
PFSG
HHTF
VFAI
TEET
LGSM
DFSC
WHLI
RWCS
GYNR
YFNF
HIRA
WSRV
TYDY
PRNF
LYWC
CQYV
PGFT
PLIG
RFIL
SSNN
TNTG
LPSL
IMAT
RPAC
PVYN
QEVL
EPKV
VDQD
DGMY
DENR
LCKE
LIGE
FANS
TTPE
KHMR
HMMR
QLNM
LVYR
AFGS
RCFA
VTHY
